Measured values reported in PubChem BioAssay AID1745845 (National Center for Advancing Translational Sciences (NCATS), 2022).
Among all 360,000 compounds or so, about 2,600 (0.72%) were called active. Inconclusive means that the source gave no clear call. Such entries were picked first, then a sample of the others. Calls come from the whole dose curve; as a rule, active = well fitted inhibition curve with a large enough effect; inconclusive = small, poorly fitted or top-dose-only effect; inactive = no such curve, though single readings can be large or run the other way. Where the call is inconclusive, the potency comes from a doubtful curve fit.

Test: Primary qHTS for Inhibitors of ATXN expression; note: nearly all actives have a fitted effect of over 55% in size
Conditions: HEK-293 ATXN2-luciferase reporter, luminescence, 24 h; activity change, negative = inhibition: at 57 µM (top of the series)
Outline: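 qHTS (up to 57 uM final) was run with 24 h compound exposure of reporter cells at 37 °C. Each well was multiplexed: SteadyGlo luminescence measured ATXN2-luciferase expression after a fluorogenic Gly-Phe-AFC viability readout (25 uM final).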
% is set by controls: 0 for no effect and ±100 for the full control effect; potency is the fitted concentration of half-maximal effect; tags give direction and shape of the fitted curve.

Row | SMILES | Potency | activity change, negative = inhibition
1 | O=C(CNC(=O)c1ccccc1Br)N/N=C/c1cc(Br)ccc1O | active: 10 µM | –
2 | Cc1ccccc1NC(=O)c1cc([N+](=O)[O-])ccc1NCCN1C(=O)CCC1=O | inconclusive: 37.7 µM [inhibitor, partial curve, poor fit] | –
3 | FC(F)(F)COc1nc(N2CCOCC2)nc(N(c2ccccc2)c2ccccc2)n1 | – | inactive: -13%
4 | O=C(NCc1ccc(Cl)cc1)C1=Cc2cc(Br)ccc2OC1 | inconclusive: 39.8 µM [inhibitor, single point] | –
5 | CC(C)=CCC[C@H](C)C[C@@H]1Cc2[nH]c(=S)[nH]c(=O)c2[C@@H](c2ccc(F)cc2)O1 | inconclusive: 35.5 µM [inhibitor, single point] | –
6 | CCN(CC)C(=O)c1cccc(-c2csc(C(O)c3cccc(OC)c3)n2)c1 (centres undefined) | inconclusive: 39.8 µM [inhibitor, single point] | –
7 | Cc1cc(F)ccc1NC(=O)C1CSC2(C)CCC(=O)N12 (centres undefined) | – | inactive: -9.78%
8 | CCc1c(C)nc2ncnn2c1N1CCCC(C(=O)NCCc2ccc(OC)cc2)C1 (centres undefined) | – | inactive: -13.4%
9 | CCOc1ccccc1N(C)C(=O)c1sc2ncn(CC(=O)N3CCCCC3C)c(=O)c2c1C (centres undefined) | – | inactive: 1.53%
10 | COc1ccc(-c2nnc(SCC(=O)NCCc3ccc(OC)c(OC)c3)nc2-c2ccc(OC)cc2)cc1 | – | inactive: -14.6%
11 | N#Cc1nc(-c2ccc(OCc3ccccc3)cc2)oc1NCCCN1CCOCC1 | inconclusive: 35.5 µM [inhibitor, single point] | –
12 | Cn1cnc([N+](=O)[O-])c1Oc1cccc2ccccc12 | inconclusive: 39.8 µM [inhibitor, single point] | –
13 | COc1ccccc1-c1oc2ccccc2c1C#CC1(N)CCCCC1 | inconclusive: 25.1 µM [inhibitor, single point] | –
14 | O=C1c2cc([N+](=O)[O-])cc3cc([N+](=O)[O-])cc(c23)C(=O)N1c1ccccn1 | inconclusive: 39.8 µM [inhibitor, single point] | –
15 | COc1ccccc1N1CCN(c2cc(=O)n(Cc3ccc(F)cc3)c(=O)[nH]2)CC1 | – | inactive: -3.54%
16 | COc1ccc([C@@H]2CC=C(C(=O)O)[C@H](c3ccc(F)cc3)N2S(=O)(=O)c2ccc(Cl)cc2)cc1 | – | inactive: 10.6%
17 | CCOC(=O)C1(CC2CC2)CCN(Cc2cc(Cl)c(O)c(OC)c2)CC1 | inconclusive: 4.74 µM [inhibitor, partial curve, poor fit] | –
18 | CCC(c1nnnn1Cc1ccc2c(c1)OCO2)N1CCN(c2ccc(OC)cc2)CC1 (centres undefined) | – | inactive: -24.1%
19 | O=C(Nc1ccc(S(=O)(=O)N2CCCC2)cc1)c1ccc(CN2CCc3ccccc3C2)cc1 | inconclusive: 11.2 µM [inhibitor, partial curve, poor fit] | –
